Measurements taken from PubChem BioAssay AID686978 (National Center for Advancing Translational Sciences (NCATS), 2013).
Several values for one entry are separate records, joined by “and”; a condition that tells them apart may be missing. Equal entries are not always repeated. In all, about 420,000 compounds went through this assay and about 64,000 (15%) were called active. This list was built around the results that the source calls inconclusive (neither active nor inactive); the mix of calls is not that of the screen. The call rests on the fitted dose curve; in most records, active means well fitted inhibition curve with a large enough effect; inconclusive means small, poorly fitted or top-dose-only effect; inactive means flat fitted curve, though single readings scatter. Potencies of inconclusive entries are doubtful fits and often do not repeat.

Experiment: qHTS for Inhibitors of human tyrosyl-DNA phosphodiesterase 1 (TDP1): qHTS in cells in absence of CPT; further: nearly all actives have a fitted effect of over 55% in size
Settings: DT40 Tdp1-/- hTDP1 cells, no CPT, ATP luminescence, 48 h; activity change, negative = growth inhibition: at 46.2 µM (top of the series)
Procedure, shortened: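 Seeded 400 DT40-hTDP1 cells/well (vehicle DMSO, no 20 nM CPT); pinned compounds; ≥48 hr at 37 °C; CellTiter-Glo luminescence as viability measure.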
On the % scale 0 is the no-effect control and ±100 the full control effect; potency means the concentration at half of the fitted maximal effect; tags describe the fitted curve by direction and shape.

Row | SMILES | Potency | activity change, negative = growth inhibition
1 | Fc1cccc(F)c1-c1nc(-c2ccncc2)no1 | inactive | –
2 | COc1cccc(N(C(C)=O)c2nc(C)cc(C)c2C#N)c1 | – | inactive: -13.1%
3 | Cc1ccc(C(=O)c2ccccc2C(=O)O)c(O)c1 | – | inactive: -0.451%
4 | COc1ccc(CCN(C)C(=O)c2oc3ccccc3c2C)cc1OC | inconclusive: 29.1 µM [inhibitor, single point] | –
5 | O=C1CN(c2ccc(Cl)cc2)C2(CCCCC2)S1 | inconclusive: 20.6 µM [inhibitor, single point] | –
6 | Cc1ccc(N(C)S(=O)(=O)c2ccc3c(c2)CC(C)N3C(=O)C2CC2)cc1 (stereo not drawn) | inconclusive: 29.1 µM [inhibitor, single point] | –
7 | CCc1c(C)sc2nc(SCC(=O)Nc3cc(C)on3)n(CCOC)c(=O)c12 | active: 1.16 µM | –
8 | Clc1cccc(Cl)c1CSc1nnc2ccccn12 | – | inconclusive: -31.2% [inhibitor]
9 | C[C@H](CO)N1C[C@H](C)[C@@H](CN(C)C(=O)Nc2ccc3c(c2)OCO3)Oc2c(NC(=O)Nc3ccc(C(F)(F)F)cc3)cccc2C1=O | inconclusive: 13 µM [inhibitor, partial curve, poor fit] | –
10 | CCOC(=O)C1CCCN(C(=O)c2ccc3nc(-c4ccc(OC)c(OC)c4)c(-c4ccc(OC)c(OC)c4)nc3c2)C1 (stereo not drawn) | inconclusive: 32.6 µM [inhibitor, partial curve] | –
11 | Cc1ccc(NC(=O)Cc2ccc3c(c2)OCCO3)cc1S(=O)(=O)N1CCCCC1 | inconclusive: 14.6 µM [inhibitor, partial curve] | –
12 | Cc1cc(OCCCN2CCC(C(O)(c3ccccc3)c3ccccc3)CC2)ccc1Br | active: 5.8 µM | –
13 | CCCCCn1c(=O)[nH]c2cc(C(=O)NC(C)CC)ccc2c1=O (stereo not drawn) | – | inactive: -1.12%
14 | COc1ccc(CCNC(=O)c2cc(=O)c3ccc(C)cc3o2)cc1OC | active: 11.6 µM and active: 20.6 µM | –
15 | O=[N+]([O-])c1ccc(C2=NN(c3ccccc3)C(c3ccco3)C2)cc1 (stereo not drawn) | inconclusive: 29.1 µM [inhibitor, single point] | –
16 | Nc1c(N=Nc2ccc(-c3ccc(N=Nc4cc(S(=O)(=O)O)c5ccccc5c4N)cc3)cc2)cc(S(=O)(=O)O)c2ccccc12 | inconclusive: 33.5 µM [inhibitor, single point] | –
17 | CCCCNc1c(C(=O)OCC)c(C)nc2c1cnn2CC | active: 10.6 µM and active: 20.6 µM | –
18 | CCCCC(=O)Nc1ccc(Br)cn1 | – | inactive: -2.08%
19 | CC(C)(C)C(=O)CSc1ncccn1 | – | inactive: 3.44%
20 | COc1ccc(C(=O)Nc2ccc3oc(-c4cccnc4)nc3c2)cc1OC | inconclusive: 4.61 µM [inhibitor, full curve] and inconclusive: 7.31 µM [inhibitor, partial curve] | –
21 | COc1ccc(NC(=O)Nc2ccc(F)cc2)cn1 | active: 7.31 µM | –
22 | O=C(/C=C/c1cccc([N+](=O)[O-])c1)N1CCN(c2ccccn2)CC1 | – | inactive: -3.78%
23 | COCCn1c(=O)[nH]c2cc(C(=O)Nc3ccc(OC)cc3)ccc2c1=O | – | inactive: -15.7%
24 | CC(OC(=O)c1cccc(S(=O)(=O)Nc2ccccc2F)c1)C(=O)NCc1ccc2c(c1)OCO2 (stereo not drawn) | inconclusive: 29.1 µM [inhibitor, single point] | –
25 | O=C(CCNC(=O)N1CC(=O)Nc2ccccc21)Nc1ccc(Cl)cc1 | – | inactive: -1.01%

Row | SMILES | Potency | activity change, negative = growth inhibition
26 | COc1ccc(CCN2C(=O)CC(N3CCC(C(N)=O)CC3)C2=O)cc1OC (stereo not drawn) | inconclusive: 29.1 µM [inhibitor, single point] | –
27 | CN(c1ccccc1)c1ccc(/C=C/[N+](=O)[O-])cc1 | active: 20.6 µM | –
28 | COc1ccc(Oc2ncc3nc(C)c(=O)n(C)c3n2)cc1 | – | inactive: -21.6%
29 | Cc1cccc(N2C(=O)N3[C@@H]4c5ccccc5OC[C@@H]4[C@@H](c4ccccc4)[C@]3(C)C2=O)c1 | inconclusive: 29.1 µM [inhibitor, single point] | –
30 | Cc1nc2ccccc2nc1CSc1nncs1 | – | inactive: -12.6%
31 | CN(C)c1nc(N)nc(-c2nc3ccccc3s2)n1 | – | inactive: -2.37%
32 | COc1ccccc1NC(=O)CSc1nnc(COc2ccccc2OC)n1C | – | inactive: 6.7%
33 | CCCCN(CC)C(=O)Cc1ccc(Br)cc1 | inconclusive: 14.6 µM [inhibitor, single point] | –
34 | Cc1ccc2c(c1)cc(C(=O)NCc1ccccc1C)n2C | – | inactive: -25.3%
35 | COc1ccc(COC(=O)CN2C(=O)NC3(CCCC3)C2=O)cc1F | inconclusive: 20.6 µM [inhibitor, partial curve, poor fit] | –
36 | O=C(NCc1nnnn1-c1ccc(Cl)cc1)C1CC(=O)N(c2ccc(F)cc2)C1 (stereo not drawn) | inconclusive: 25.9 µM [inhibitor, single point] | –
37 | COc1ccc(N2CCN(C(=O)CSc3nnc4n3C(C)(C)Cc3ccccc3-4)CC2)cc1 | active: 20.6 µM | –
38 | O=C(CSc1nnc(-c2cccs2)n1-c1ccccc1)N1CCCc2ccccc21 | active: 16.4 µM | –
39 | CCn1c2ccccc2c2cc(NC(=O)COc3cc(C)ccc3C)ccc21 | active: 9.2 µM | –
40 | O=C(c1ccc(F)cc1)N1CCOC(c2nc(-c3ccc(F)cc3)no2)C1 (stereo not drawn) | inconclusive: 20.6 µM [inhibitor, single point] | –
41 | Cc1ccc(-c2cc(C(=O)O)n(-c3ccc(S(N)(=O)=O)cc3)n2)cc1 | – | inactive: -1.67%
42 | C/C(=N\NC(=O)c1c(Br)c(C)nn1C)c1ccc(NC(=O)C(C)Oc2ccc(Cl)cc2C)cc1 (stereo not drawn) | inconclusive: 18.4 µM [inhibitor, single point] | –
43 | CCCCN1C(Nc2ccccc2)=NC[C@@H]1C | – | inactive: -3.44%
44 | O=C(COC(=O)c1cccc(NC(=O)c2ccc(Br)cc2)c1)c1ccc(Cl)cc1 | inconclusive: 23.1 µM [inhibitor, partial curve] | –
45 | COc1ccc(C(CNC(=O)c2cccc(S(=O)(=O)N3CCOCC3)c2)N2CCCC2)cc1 (stereo not drawn) | – | inactive: 19.3%
46 | Cc1ccc(S(=O)(=O)N2CCC(=O)N(CCOC(=O)Nc3ccc(F)cc3)CC2)cc1 | inconclusive: 29.1 µM [inhibitor, single point] | –
47 | O=C(CNc1ccc(F)cc1Cl)Nc1cccc(S(=O)(=O)N2CCCCC2)c1 | inconclusive: 29.1 µM [inhibitor, single point] | –
48 | CCOc1ccc(NC(=O)Cc2ccccc2)cc1 | – | inconclusive: -31.6% [inhibitor]
49 | COc1ccc(-c2noc(CN3CCN(C(=O)c4cccs4)CC3)n2)c(OC)c1OC | – | inactive: -8.55%
50 | CCOC(=O)C1CCCN(S(=O)(=O)c2ccc3c4c(cccc24)C(=O)N3CC)C1 (stereo not drawn) | inconclusive: 25.9 µM [inhibitor, single point] | –

Row | SMILES | Potency | activity change, negative = growth inhibition
51 | C/C(=N\NC(=O)c1ccc(Cl)c(Cl)c1)c1cccc(NC(=O)C(C)C)c1 | – | inactive: -23%
52 | O=C(CCSc1nnc(-c2ccco2)o1)Nc1ccc(Cl)cc1 | inconclusive: 23.1 µM [inhibitor, single point] | –
53 | Cc1ccc2nc(-c3cccc(SC4CCCCC4)c3)c(NC3CCCCC3)n2c1 | active: 16.4 µM | –
54 | COc1cc(OC)cc(C(=O)Nc2ccc(C(=O)c3ccncc3)cc2)c1 | inconclusive: 16.4 µM [inhibitor, partial curve, poor fit] | –
55 | O=C(/C=C/c1ccccc1)Nc1nc2n(n1)C(c1ccc(F)cc1)C=C(c1ccccc1)N2 (stereo not drawn) | active: 8.2 µM | –
56 | CC1CCN(c2nnc(-c3cccs3)c3ccccc23)CC1 | inconclusive: 16.4 µM [inhibitor, partial curve] | –
57 | CC1CCC(n2c(=S)[nH]c3ccccc3c2=O)CC1 (stereo not drawn) | inconclusive: 4.61 µM [inhibitor, full curve, poor fit] | –
58 | Cc1cc(Br)cc2c1N(Cc1ccccc1OC(C)C)C(=O)C2=O | active: 4.11 µM | –
59 | Cc1cc(C)c(S(=O)(=O)NCC(c2ccco2)S(=O)(=O)c2cccs2)c(C)c1 (stereo not drawn) | inconclusive: 23.1 µM [inhibitor, partial curve, poor fit] | –
60 | CCCc1cc(=O)n2[nH]cc(-c3ccc(Cl)cc3)c2n1 | active: 5.8 µM | –
61 | C[C@H](O)[C@@H]1C(=O)N2CCc3ccc(-c4cccc(F)c4)cc3[C@@H]2C[C@@H]1N(C)C(=O)Nc1ccccc1 | inconclusive: 23.1 µM [inhibitor, single point] | –
62 | Cc1occc1C(=O)NNC(=O)c1nn(C)c(=O)c2ccccc12 | – | inactive: 3.27%
63 | Cc1cc(Cl)c(S(=O)(=O)NC(C(=O)O)c2ccccc2)cc1OCC(N)=O (stereo not drawn) | – | inactive: -6.66%
64 | Cc1cc(-c2ccc(/C=N/n3cnnc3)o2)ccc1Cl | inconclusive: 29.1 µM [inhibitor, single point] | –
65 | COc1cccc(-c2nnc(NC(C)=O)o2)c1 | – | inactive: -4.31%
66 | CCOc1cc(/C=C2\C(=N)N3N=CSC3=NC2=O)ccc1OS(=O)(=O)c1ccccc1 | inconclusive: 29.1 µM [inhibitor, single point] | –
67 | COc1ccc(C(=O)Nc2cccnc2Sc2ccc(Cl)cc2)cc1 | inconclusive: 0.651 µM [inhibitor, full curve, poor fit] | –
68 | CC1CCc2onc(C(=O)N3CCN(c4cccc(Cl)c4)CC3)c2C1 (stereo not drawn) | inconclusive: 23.1 µM [inhibitor, single point] | –
69 | O=C1/C(=C/c2ccccc2)SC(=S)N1CCCC(=O)N1CCCCC1CCO (stereo not drawn) | inconclusive: 25.9 µM [inhibitor, single point] | –
70 | COc1ccc(CNc2ccnc(-c3ccoc3)n2)c(OC)c1 | – | inactive: -15.7%
71 | CCc1nn2c(=O)c(S(=O)(=O)Nc3ccc(C)c(C)c3)c(C)nc2s1 | active: 23.1 µM | –
72 | COc1ccc2ccccc2c1/C=N/NC(=O)c1cccc(C)c1 | inconclusive: 16.4 µM [inhibitor, partial curve, poor fit] | –
73 | O=C(NCc1ccc(Cl)cc1)C1CCCCN1S(=O)(=O)c1ccccc1 (stereo not drawn) | inconclusive: 25.9 µM [inhibitor, single point] | –
